# Experimental data taken from PubChem BioAssay AID686979 (National Center for Advancing Translational Sciences (NCATS), 2013).
# The whole screen tested about 420,000 compounds, of which about 50,000 (12%) were called active. Inconclusive means that the source gave no clear call. Such entries were picked first, then a sample of the others. Calls follow the shape of the dose curve; as a rule, active = well fitted inhibition curve with a large enough effect; inconclusive = small, poorly fitted or top-dose-only effect; inactive = flat fitted curve, though single readings scatter. No potency is given beside an inconclusive call; the fits are too rough.
# Assay: qHTS for Inhibitors of human tyrosyl-DNA phosphodiesterase 1 (TDP1): qHTS in cells in presence of CPT; also: nearly all actives have a fitted effect of over 55% in size
# Conditions: chicken DT40 Tdp1-/-;hTDP1 cells + 20 nM CPT, ATP luminescence, 48 h; activity change, negative = growth inhibition: at 46.2 µM (top of the series)
# Procedure, shortened: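 Chicken DT40 Tdp1-/- cells stably complemented with human TDP1 were seeded at 400 cells/well in medium containing 20 nM camptothecin, exposed to pin-transferred compounds, and grown at 37 °C for at least 48 hr. Viability was read as ATP luminescence.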
# % is scaled to controls: 0 for no effect and ±100 for the full control effect; potency is read from the fitted curve at half-maximal effect; tags tell the direction and shape of the fitted curve.
SMILES,"activity change, negative = growth inhibition",Potency
CN(C)NC(=O)c1cccc(Cl)c1,inactive: -4.62%,
Oc1ccc(C2Nc3cccc4cccc(c34)N2)cc1,,"inconclusive [inhibitor, single point]"
Nc1sc(-c2ccccc2)n[n+]1Cc1cccc2cccnc12,,"inconclusive [inhibitor, single point]"
COc1ccc(C2CC(=O)c3cnc(Nc4cc(C)cc(C)c4)nc3C2)cc1 (stereo not given),,"inconclusive [inhibitor, single point]"
COc1ccc(/C=N/NC(=O)Cc2csc(Nc3cccc(C(F)(F)F)c3)n2)c(OC)c1,,"inconclusive [inhibitor, single point]"
Cc1cc(C(=O)CS(=O)(=O)c2ccc(F)cc2)cc(C)c1O,inactive: 18.6%,
CN(Cc1ccc(Cl)c(Cl)c1)C(C(=O)NCc1ccccc1)c1ccc(C(F)(F)F)cc1 (stereo not given),,"inconclusive [inhibitor, single point]"
COc1ccc2c(c1)/C(=C/c1cc(OC)c(OC)c(OC)c1)C(=O)N2,,active: 0.517 µM
C[N+]1(CCC(=O)c2ccccc2)CCCCC1,,active: 3.26 µM
CCOc1ccccc1N1CCN(C(=O)c2c(-c3c(F)cccc3Cl)noc2C)CC1,,"inconclusive [inhibitor, single point]"
O=C(NNC1=C(C(=O)C(F)(F)F)CCC1)c1ccc(Cl)cc1,,"inconclusive [inhibitor, single point]"
Cc1cc([N+](=O)[O-])ccc1NC(=O)CCC(=O)N1CCCC1,inactive: -2.31%,
COc1cc2c(cc1OC)-c1cc(Nc3cccc(C)c3)nc(=O)n1CC2,,"inconclusive [inhibitor, single point]"
O=C(c1cc(-c2ccccc2)nc2ccccc12)N1CCCc2ccccc21,,"inconclusive [inhibitor, single point]"
COc1ccc(Cl)cc1NC(=O)C1CCCN(c2cc(C)nc3ncnn23)C1 (stereo not given),,"inconclusive [inhibitor, partial curve, poor fit]"
CCOC(=O)c1[nH]c(C)c(CCC(=O)N2CCN(c3cc(Cl)ccc3C)CC2)c1C,,"inconclusive [inhibitor, single point]"
COc1cc(OC)cc(C(=O)NC(=S)N(Cc2ccccc2)C(C)C)c1,,"inconclusive [inhibitor, single point]"
CCOc1cc(/C=N/NC(N)=O)cc(Br)c1OCC(=O)Nc1cccc2ccccc12,,"inconclusive [inhibitor, partial curve]"

SMILES,"activity change, negative = growth inhibition",Potency
CCc1ccc(-n2c(Cc3ccccc3)n[nH]c2=S)cc1,,"inconclusive [inhibitor, single point]"
Cc1nnc(N2CCN(c3ccccc3)CC2)c2c1nnn2Cc1ccc(F)cc1,,active: 16.4 µM
COc1ccccc1CCC(=O)Nc1cc(S(=O)(=O)N2CCOCC2)ccc1N1CCCC1,,"inconclusive [inhibitor, partial curve]"
Cc1nnc(SCC(=O)c2ccc([N+](=O)[O-])cc2)s1,,"inconclusive [inhibitor, full curve, poor fit]"
O=C(/C=C/c1ccc([N+](=O)[O-])cc1)NCc1ccccn1,,"inconclusive [inhibitor, single point]"
CSc1nc2c(=S)[nH]c(=S)[nH]c2s1,,"inconclusive [inhibitor, single point]"
C[C@@H]1CN([C@H](C)CO)C(=O)c2c(c3ccccc3n2C)-c2ccccc2CO[C@H]1CN(C)C(=O)Nc1ccccc1,,"inconclusive [inhibitor, single point]"
COc1ccc(C)cc1NC(=O)C(=O)NNC(=O)c1ccco1,,"inconclusive [inhibitor, single point]"
CNC(=S)NNC(=O)CSCc1c(Cl)cccc1Cl,inactive: 3.71%,
CCC(=O)N1CCN(c2ccc(NC(=O)COc3ccc(C)cc3C)cc2)CC1,,"inconclusive [inhibitor, single point]"
C=CCn1c(SCC(=O)Nc2cc(C)ccc2C)nnc1-c1cnccn1,inactive: -4.36%,
Cc1cc(C)nc(Nc2n[nH]c(COc3cccc4ccccc34)n2)n1,,active: 2.91 µM
Cc1cc([N+](=O)[O-])ccc1NC(=O)Nc1ccc(F)cc1F,,active: 5.17 µM
COc1ccc(Cl)cc1N(C)c1nc(N2CCN(S(=O)(=O)c3ccc(C)cc3)CC2)c2ccccc2n1,,active: 8.91 µM
COc1ccc(Cc2nnc(Nc3c(C)cccc3C)o2)cc1OC,inactive: 2.07%,
COc1ccc2c(c1)C(=O)CC(c1ccccc1F)O2 (stereo not given),,"inconclusive [inhibitor, single point]"
O=C1/C(=C/c2ccco2)SC(=S)N1CC1CCCO1 (stereo not given),inactive: 3.21%,
